# Measured values published in the supplement of paper PMC3334620.
# Over roughly 33,000 sequences, “E-score (-0.5 to 0.5)” has its median near -0.011; the highest 2% begin near 0.28. The list shows a part of the results.
# Target: T1, Gcr1 (UniProt P07261)
# T1 sequence: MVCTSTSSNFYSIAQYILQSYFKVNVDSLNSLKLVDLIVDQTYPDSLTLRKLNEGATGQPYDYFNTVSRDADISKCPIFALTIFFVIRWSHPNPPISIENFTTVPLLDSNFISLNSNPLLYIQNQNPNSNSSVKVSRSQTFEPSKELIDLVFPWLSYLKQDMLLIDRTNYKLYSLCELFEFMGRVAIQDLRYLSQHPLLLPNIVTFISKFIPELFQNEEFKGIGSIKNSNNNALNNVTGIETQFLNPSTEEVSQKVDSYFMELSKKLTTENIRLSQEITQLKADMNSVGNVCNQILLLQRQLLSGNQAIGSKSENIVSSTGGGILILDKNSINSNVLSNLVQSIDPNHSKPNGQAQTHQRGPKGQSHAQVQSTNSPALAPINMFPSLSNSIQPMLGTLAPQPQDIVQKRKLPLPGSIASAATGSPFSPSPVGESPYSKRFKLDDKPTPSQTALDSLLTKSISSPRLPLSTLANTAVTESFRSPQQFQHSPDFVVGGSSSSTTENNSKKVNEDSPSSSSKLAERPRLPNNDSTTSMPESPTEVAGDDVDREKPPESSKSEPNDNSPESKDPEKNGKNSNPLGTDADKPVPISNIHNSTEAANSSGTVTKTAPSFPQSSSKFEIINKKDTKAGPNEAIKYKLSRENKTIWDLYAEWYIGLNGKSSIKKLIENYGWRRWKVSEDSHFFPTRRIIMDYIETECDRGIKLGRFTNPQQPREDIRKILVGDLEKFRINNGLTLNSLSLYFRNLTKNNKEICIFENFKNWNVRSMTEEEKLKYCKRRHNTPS
# Assay: PBM E-score (8-mer binding enrichment) (E-score (-0.5 to 0.5)); higher = stronger / more preferred TF binding; most listed sequences are background and not binding sites
# Conditions: protein concentration: 100 nM; construct: GST-full length
# Protocol: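 Universal 'all 10-mer' protein binding microarrays (Agilent AMADID 015681) probed with GST-tagged S. cerevisiae TFs (full-length or DBD) made by in vitro transcription/translation (PURExpress), about 100-200 nM. Bound TF was detected with fluorescent anti-GST. Each ungapped 8-mer (which stands for itself and its reverse complement) is scored by the PBM enrichment score (E-score), a modified Wilcoxon-Mann-Whitney statistic from -0.5 to +0.5, computed with the Universal PBM Analysis Suite. Scale: above 0.35 generally sequence-specific binding.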
row,Sequence,PBM E-score
1,CATGCCCC,-0.183
2,AGTACAAT,-0.121
3,GCATGCGC,-0.233
4,AGACTTGA,-0.0853
5,CGTCTCCC,0.0616
6,AACACGCA,0.248
7,AGCGGGTA,0.216
8,TGTGCAAA,-0.0572
9,CATATCTA,-0.037
10,CCGAAATC,0.116
11,CGTCTTAC,-0.102
12,CCCTTACG,-0.257
13,GGCTCAAC,-0.0738
14,ATCTGTTC,-0.123
15,CTCGTAGC,-0.0915
16,GGATTCTA,0.151
17,ATTGAGAC,0.152
18,CACTTTAG,0.119
19,GGATGTAA,0.0119
20,GGGCAGAA,-0.0553
21,AGACGCAA,0.153
22,AAATAACG,0.112
23,GCAGAGGC,-0.0738
24,CGGGCGAG,-0.165
25,ATCGCCTG,-0.041

row,Sequence,PBM E-score
1,GAGCGTGC,-0.1
2,ATCGCAGG,-0.212
3,AGCAGATC,-0.151
4,ATATTTGC,-0.0121
5,CAAGGAGG,0.141
6,ATGCCCCA,0.0659
7,CGACTAGC,-0.248
8,AGACACGG,-0.0156
9,CTGTCTTA,0.0396
10,AATCTTCT,0.227
11,AGAATCCG,0.202
12,TCGGGAGA,-0.129
13,AACATCTG,0.0139
14,CTGCGAAG,-0.146
15,AACAGAGC,-0.2
16,ATAGACGC,0.377
17,CCGCTGCA,-0.012
18,ATCAGGAA,0.236
19,CTGTGACA,0.035
20,AGCCGAGA,0.0196
21,GGCACCCC,0.322
22,CGCGCAAG,0.045
23,TCCTCAGA,-0.109
24,CCTCTGAC,-0.0208
25,CTAAGTTA,0.00202

row,Sequence,PBM E-score
1,AAGATCAT,-0.0156
2,CGAGCCAC,-0.116
3,CAACAACC,-0.0888
4,ACGGTGTG,-0.27
5,ACAGAAGA,0.0874
6,GTACGCTA,-0.0435
7,CCACAAAG,0.16
8,CCGAATAA,0.188
9,ACCCACAT,0.123
10,ACATTTTG,-0.143
11,ACCGCGAG,-0.181
12,TTAGTAAA,0.212
13,GACTAGCC,-0.0549
14,ATTGATGA,0.0698
15,CGGCCCAA,0.023
16,CGGAACCA,0.114
17,AAGTAGGC,0.104
18,AGATGCCG,0.273
19,AGGGGATG,0.245
20,ACGATGGA,-0.0284
21,ACACTAGA,0.0197
22,CGGATATC,-0.125
23,ATAGTCGA,-0.0555
24,AGCATAGG,-0.208
25,ACAACTAT,-0.0862

row,Sequence,PBM E-score
1,CATCTTAC,0.0945
2,TCTATAAA,-0.0626
3,CCCATGCA,-0.027
4,CCCCAGTC,-0.0316
5,CAGCAATA,0.0248
6,AAGCTAGG,0.0368
7,GCTATAGC,-0.0133
8,GCCATTAC,-0.0129
9,CAGGCCCC,0.0973
10,CCAATATA,0.215
11,CATTCCGG,0.0685
12,TTCACGAA,0.0842
13,ATGGCTTA,0.0216
14,ACCTATCG,0.213
15,TACTTTAA,0.087
16,ACAAGGGG,-0.0971
17,AGGGCTTC,0.339
18,GGCCGATA,-0.0677
19,ATCAAGAT,-0.00904
20,CGTCTTGC,-0.0494
21,GATTTAAA,-0.00595
22,AATAAGCT,-0.017
23,ACCACCAT,0.0943
24,GCCCTTTA,-0.0115
25,GCTTGTTA,-0.157

row,Sequence,PBM E-score
1,CGGAACGA,0.0962
2,GTCTAACA,0.0607
3,GTCTACGA,-0.1
4,AGTTGTCC,-0.163
5,ATTGAGTC,-0.161
6,AAATTGCA,0.0808
7,CCCGGTTC,0.0738
8,CACGTTCA,-0.0908
9,CATCTATC,-0.0245
10,AGTAGGTG,-0.0321
11,TCGGGACA,-0.0131
12,GACCCTGA,0.0473
13,AAACCGCA,-0.0451
14,TGCAGAAA,0.164
15,GCGCGATA,0.14
16,AGGACAAA,-0.0377
17,ACGCTTCA,-0.0408
18,ATCTTCAC,0.136
19,GATTCAGA,0.0913
20,CCCTACAG,-0.197
21,AAACCCGT,-0.0538
22,CCGGCTTA,-0.0254
23,CTCTCCAG,-0.118
24,GACCGCTC,-0.183
25,ACGGTGTC,-0.168

row,Sequence,PBM E-score
1,ACAGCGGC,0.137
2,CGATCTGA,-0.0839
3,AGCTCCCC,-0.124
4,ACATATGT,-0.13
5,CGACTCGC,-0.123
6,GATTAGTA,0.0915
7,AAGATATT,0.125
8,GTATGTTA,-0.0616
9,AGAATCCA,0.249
10,ACCTCCGG,0.0364
11,GAGAATTA,0.0982
12,CCAACGAC,-0.0882
13,ACCAGACC,-0.0312
14,ATAACGAC,-0.0254
15,GGGGAATA,-0.0429
16,TAAAACAA,-0.0081
17,GATTAATA,0.154
18,CGATAAAC,-0.269
19,GTCTCAGA,-0.0978
20,CGCTATAC,-0.182
21,GCGTCAGC,-0.152
22,GCTTGCCC,-0.164
23,ATGTTTTG,-0.0384
24,CAGTACGG,-0.115
25,AGGCTACC,0.0739

row,Sequence,PBM E-score
1,CAAACGTA,-0.141
2,ACTGACCT,-0.211
3,CTCTATCA,-0.178
4,GATTGGGC,-0.08
5,GGAAAACA,-0.113
6,GTACCGTA,0.0724
7,AGGGTTCA,-0.118
8,GTTACACA,0.0428
9,CGTTACAG,0.0257
10,CCTGGTAC,0.123
11,AGTGGTCC,0.0263
12,GTAATGTA,-0.026
13,CCAACAAG,0.0404
14,ATCGTTAA,-0.0428
15,CTATTTTA,0.209
16,ACCCTGTA,0.102
17,CGTTGGCC,-0.23
18,AAGGCTAG,-0.251
19,CAGAGGGG,-0.233
20,CTCTATTA,0.154
21,ATAATAGG,0.237
22,ATCATGTC,0.0222
